Test results taken from PMC4336329 (PLoS ONE, 2015).
The whole screen tested about 310,000 compounds, of which about 14,000 (4.5%) showed an effect of 50% or more. The effect is printed as a negative number. This is one part of the list.

Each molecule was assayed against human ether-à-go-go-related gene (hERG) potassium channel (human, UniProt Q12809) (assay: primary screen, population patch clamp on CHO cells stably expressing hERG).
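Also: peak tail current of the secondary pulse compared with the same well before compound.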

Chain of human ether-à-go-go-related gene (hERG) potassium channel (Q12809 whole entry, looked up): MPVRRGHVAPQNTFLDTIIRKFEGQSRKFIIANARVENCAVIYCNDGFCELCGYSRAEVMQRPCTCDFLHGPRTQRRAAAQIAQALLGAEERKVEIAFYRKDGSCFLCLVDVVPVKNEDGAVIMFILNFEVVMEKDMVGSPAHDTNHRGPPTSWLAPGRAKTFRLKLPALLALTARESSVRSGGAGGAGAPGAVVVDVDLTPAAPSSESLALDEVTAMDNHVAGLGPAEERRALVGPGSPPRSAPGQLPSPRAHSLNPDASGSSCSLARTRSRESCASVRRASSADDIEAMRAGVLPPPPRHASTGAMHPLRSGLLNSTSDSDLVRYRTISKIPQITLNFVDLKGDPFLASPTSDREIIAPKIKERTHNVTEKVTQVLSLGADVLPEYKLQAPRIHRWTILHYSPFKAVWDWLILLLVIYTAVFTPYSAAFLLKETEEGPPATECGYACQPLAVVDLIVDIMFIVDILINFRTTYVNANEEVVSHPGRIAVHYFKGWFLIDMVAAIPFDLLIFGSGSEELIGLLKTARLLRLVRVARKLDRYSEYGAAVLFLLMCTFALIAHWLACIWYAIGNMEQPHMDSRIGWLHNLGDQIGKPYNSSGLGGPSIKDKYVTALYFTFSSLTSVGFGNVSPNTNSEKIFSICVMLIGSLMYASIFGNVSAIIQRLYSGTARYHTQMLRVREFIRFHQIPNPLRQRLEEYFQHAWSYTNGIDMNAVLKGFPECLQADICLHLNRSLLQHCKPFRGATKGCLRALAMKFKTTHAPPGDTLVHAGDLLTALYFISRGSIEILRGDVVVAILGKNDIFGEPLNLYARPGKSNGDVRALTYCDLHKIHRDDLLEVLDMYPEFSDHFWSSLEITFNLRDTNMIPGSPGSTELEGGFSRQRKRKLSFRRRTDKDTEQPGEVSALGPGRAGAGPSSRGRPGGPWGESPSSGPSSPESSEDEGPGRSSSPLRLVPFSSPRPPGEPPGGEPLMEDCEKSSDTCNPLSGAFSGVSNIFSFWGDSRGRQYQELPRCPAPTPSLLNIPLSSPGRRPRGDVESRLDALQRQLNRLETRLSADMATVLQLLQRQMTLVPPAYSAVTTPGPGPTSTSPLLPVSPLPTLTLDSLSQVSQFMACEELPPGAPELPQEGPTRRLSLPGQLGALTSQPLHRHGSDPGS

Row | Compound | hERG current change (%, negative = inhibition) at 10uM
1 | CCOc1cc(/C=C/C(=O)c2ccc3c(c2)OCCO3)ccc1OCC(=O)N(C)C | 0.478%
2 | CCOC(=O)CN=C/C(C(=O)Nc1nccs1)=C(/C)O | 2.98%
3 | O=C(Nc1ccc(F)cc1)NC1CCN(Cc2c(F)cccc2Cl)CC1 | -11.2%
4 | CN(C(=O)Nc1ccccc1)C1CCCc2ccccc21 (stereo not drawn) | -6.21%
5 | Cc1ccc(C(=O)NCCC2=CCCCC2)cc1S(=O)(=O)N1CCOCC1 | -21.2%
6 | COc1ccc(C(=O)O/N=C(\N)Cc2ccc(Cl)c(Cl)c2)cc1OC | -20.6%
7 | Cc1ccc(NC(=S)NC2CCSc3ccccc32)cc1 (stereo not drawn) | 16.5%
8 | Cc1c(C(=O)NCc2ccccn2)oc2ccc(S(=O)(=O)N3CCC4(CC3)OCCO4)cc12 | -5.41%
9 | Cc1cccc(C)c1OCc1nnc(SCC(=O)Nc2nccs2)o1 | -12.5%
10 | CC(C)(C)C(=O)Cn1c(=O)n(-c2ccc(F)cc2F)c(=O)c2sccc21 | 4.28%
11 | COc1ccc(C2=NN(C(=O)c3cccnc3)C(c3ccccc3)C2)cc1 (stereo not drawn) | -5.13%
12 | COc1ccc(OC)c(C(=O)NC2CC(C)(C)Cc3c2cnn3-c2ccccc2)c1 (stereo not drawn) | -19.5%
13 | CC(CCO)Nc1nc2c([nH]1)c(=O)n(C)c(=O)n2C (stereo not drawn) | 10.5%
14 | Cc1cc(C)cc(NC(=O)C2CCN(S(C)(=O)=O)CC2)c1 | -6.86%
15 | O=C(NCCOc1ccccc1Cl)C(=O)NCCOc1ccccc1Cl | 3.16%
16 | NC(=O)c1ccc2c(=O)c(O)c(-c3cc(Cl)c(N)c(Cl)c3)[nH]c2c1 | -5.41%
17 | CCOc1ccc(CN2CCNC(=O)C2CC(=O)NCCCOc2cccnc2)cc1 (stereo not drawn) | 12%
18 | Cc1ccc(-n2nc3c(N4CCC(C(=O)N5CCCCCC5)CC4)nnc(C)c3c2C)cc1 | -68.7%
19 | O=C(NNC(=O)c1ccccc1O)c1ccc(Cl)cc1 | 12%
20 | O=C1N[C@H](Cc2ccccc2)C(=O)N[C@H]1Cc1cn(S(=O)(=O)c2ccccc2)c2ccccc12 | 13.1%
21 | CCCNC(=S)Nc1ccc(S(N)(=O)=O)cc1 | 18.2%
22 | COC(=O)c1cc(COc2ccc3ccc(=O)oc3c2)c(C)o1 | 21.2%

Row | Compound | hERG current change (%, negative = inhibition) at 10uM
23 | COc1ccccc1-c1nnc(NC(=O)c2ccc3ncsc3c2)o1 | -9.39%
24 | O=C(c1cccc(F)c1)N1CCN(C(=O)c2cc(-c3ccc(Cl)cc3Cl)on2)CC1 | -22.2%
25 | CCOc1cc(C2NC(=O)NC(C)=C2C(=O)OCC2CCCCC2)ccc1O (stereo not drawn) | 7.07%
26 | O=C(NCc1ccncc1)c1ccccc1Nc1ccc(SC(F)F)cc1 | -63.9%
27 | Cc1ccc(N2C(=O)C3C4C=CC(CNC(=S)N5CCN(c6ccccc6)CC5)(O4)C3C2=O)cc1 (stereo not drawn) | 8.77%
28 | CCOc1ccc2oc(C(=O)N(C)CC(=O)Nc3ccc(OCC)c(OCC)c3)c(C)c2c1 | -44.2%
29 | COCCCn1cc(C(=O)c2ccccc2OCC(=O)Nc2cccc(F)c2)cc(C#N)c1=O | -35.9%
30 | CCOc1ccc(CCNS(=O)(=O)c2ccc3c(c2)N(C(C)=O)CCO3)cc1OCC | 3.84%
31 | CCCc1cc(=O)n2[nH]c(NCc3ccccc3F)nc2n1 | 12.4%
32 | Cc1ccc(O)c(NC(=O)c2cc(-c3cccs3)on2)c1 | 2.6%
33 | O=S(=O)(Nc1nc2ccccc2nc1Cl)c1ccccc1 | 16.2%
34 | O=C(c1cc2ccccc2o1)N1CCN(S(=O)(=O)c2cccs2)CC1 | -1.84%
35 | COc1ccc(OC)c(S(=O)(=O)Nc2ccc3c(c2)C(=O)OC3)c1 | 14.1%
36 | COCCCNc1nc2nonc2nc1N1CCN(Cc2cccc(C)c2)CC1 | -20%
37 | Cc1nc2cc(NC(=O)c3ccco3)ccc2n1C | -0.994%
38 | CCOC(=O)C1=C(N)OC(C)=C(C#N)C1c1ccco1 (stereo not drawn) | 3.82%
39 | COc1ccc(Cl)cc1C(=O)OCC(=O)NCc1cccs1 | -28.1%
40 | CCn1c(-c2ccco2)n[nH]c1=S | 12%
41 | COc1cc(C2C(C(=O)c3ccc(C)o3)=C(O)C(=O)N2c2cc(C)on2)cc(Br)c1O (stereo not drawn) | 19.4%
42 | O=C(COC(=O)CCC(=O)c1cccs1)Nc1ccc(Cl)cn1 | 5.94%
43 | O=C(Nc1ccc2c(c1)OCO2)c1cnc2n(c1=O)CCS2 | -6.5%
44 | COc1cc(C(=O)OCC(=O)Nc2c(F)cccc2F)cc(OC)c1C | 5.89%

Row | Compound | hERG current change (%, negative = inhibition) at 10uM
45 | O=C(O)Cn1cc(/C=C2/NC(=O)N(c3ccc(Cl)cc3)C2=O)c2ccccc21 | 12.9%
46 | CN(C)S(=O)(=O)c1cccc(NC(=O)c2cc(-c3cccs3)nc3ccccc23)c1 | 3.99%
47 | COc1ccccc1Nc1ncc(C(=O)Nc2ccc(OC)c(OC)c2)c2ccccc12 | 19.7%
48 | Cc1cc2c(ncn2Cc2ccccc2)c([N+](=O)[O-])c1C | -20.2%
49 | CC(=O)NC(c1ccccc1)c1cccnc1 (stereo not drawn) | -5.09%
50 | COc1cc(CNC2CCCCCCC2)c(Br)cc1OCCO.Cl | 7%
51 | N#CCCN1CCN(C(=S)c2ccc(-c3cccc(Cl)c3)o2)CC1 | -59.9%
52 | CC(C)(C)c1cc(C(=O)N2CCc3ccccc32)ccn1 | 1.48%
53 | Cc1c(C)c(C)c(S(=O)(=O)NCCc2ccncc2)c(C)c1C | 7.61%
54 | CCCCn1c(N)c(N(Cc2ccccc2OC)C(=O)COc2ccc(C)cc2)c(=O)[nH]c1=O | 0.355%
55 | NNC(=O)CSc1c(-c2ccccc2)c2cc(Cl)ccc2[nH]c1=O | 3.91%
56 | Cc1ccc(CN2CCCN(Cc3ccc(C)cc3)S2(=O)=O)cc1 | 13.2%
57 | Cc1ccc(CNC(=O)C(=O)NCC2OCCN2C(=O)c2ccc3c(c2)OCO3)cc1 (stereo not drawn) | -7.72%
58 | CCN(CC)CCNC(=O)c1cc(-c2cccnc2)nc2ccc(S(=O)(=O)N3CCC(C)CC3)cc12 | -65.1%
59 | CN(C)C=Nc1ccc(Cl)c(Cl)c1 | 14.5%
60 | CCc1ccc(NC(=O)CSc2nc3ccccc3nc2N2CCCCC2)cc1 | -18.4%
61 | COc1ccc(NC(=O)CSc2ncccn2)cc1S(=O)(=O)N1CCCCC1 | -10.7%
62 | CCn1cc(C(=O)NCC(C)C)c(=O)c2cc(F)c(N3CCN(C(=O)c4ccco4)CC3)cc21 | -59.9%
63 | CC(=O)N1CCc2cc(S(=O)(=O)Nc3cccc(C(F)(F)F)c3)ccc21 | -4.47%
64 | COc1cccc(-n2nc(-c3ccnn3-c3ccc(F)cc3)c(=O)n(C)c2=O)c1 | 16%
65 | CC(=O)c1cccc(NC(=O)CN(c2ccc(C)cc2)S(=O)(=O)c2cccc3nonc23)c1 | -10.1%
66 | CCN(CC)c1ccc(/C=N/N2CCN(Cc3ccccc3)CC2)cc1 | -3.18%

Row | Compound | hERG current change (%, negative = inhibition) at 10uM
67 | CCN(CC(=O)Nc1ccc(OC)cc1)C(=O)c1cc([N+](=O)[O-])ccc1N1CCOCC1 | -15.8%
68 | Cc1ccc(NNC(=S)Nc2ccc(C(C)C)cc2)c(C)c1 | -3.56%
69 | COc1ccccc1NS(=O)(=O)c1cc(NC(=O)c2ccccc2F)ccc1N1CCOCC1 | 17.9%
70 | Cn1c(=O)c2[nH]c(SCc3ccccn3)nc2n(C)c1=S | -7.36%
71 | O=C(NCCC(=O)N1CCCCC1)c1ccc(Br)cc1 | 8.63%
72 | COc1cc(OC)cc(C(=O)N[C@H](C(=O)OCn2nnc3ccccc3c2=O)C(C)C)c1 | -13.3%
73 | O=S(=O)(c1ccc(S(=O)(=O)N2CCCC3(CCCCC3)C2)cc1)N1CCCCC1 | -4.93%
74 | CC1(C)CNC(=O)c2sc(NC(=O)CN3CCOCC3)nc2C1 | -6.74%
75 | O=C(NC1CC1)C1CCN(C(=O)c2ccc(Cl)cc2)CC1 | 19.8%
76 | CC1CCN(C(=O)CCc2nnc3ccc(NCc4ccco4)nn23)CC1 | 0.306%
77 | C=CCOc1ccc(CNn2nnnc2N)cc1 | 18.6%
78 | CCN1CCN(c2nc(-c3ccc(F)cc3)cc(=O)[nH]2)CC1 | -3.45%
79 | Cc1ccc(S(=O)(=O)c2c(COC(=O)c3ccc(Cl)cc3)c(-c3ccccc3)nn2C)cc1 | -3.18%
80 | NC(=O)c1ccccc1NC(=O)CCc1ccccc1 | 6%
81 | COc1ccc(N2CC(C(=O)Nc3ccccc3C(=O)NC3CC3)CC2=O)cc1 (stereo not drawn) | -38.8%
82 | Cc1cc(C)c(OCC(=O)NCC(c2ccco2)N2CCCCC2)c(C)c1 (stereo not drawn) | -52.1%
83 | N#Cc1ncc(-c2ccc3c(c2)OCCOCCOCCOCCOCCO3)nc1C#N | -75.3%
84 | CCc1ccc(O)c(N=Cc2cccc(C)c2O)c1 | 10.5%
85 | CCc1ccccc1NC(=O)c1ccc(CN2CCC(Cc3ccccc3)CC2)cc1 | -50.8%
86 | Cc1ccccc1C(=O)Nc1cc(-c2cc(C(C)(C)C)oc2C)nn1C | 9.21%
87 | [O-]/C(=C(\C(=S)Nc1ccc(SC(F)F)cc1)[n+]1ccccc1)c1ccc(Cl)cc1Cl | -5.18%
